Experimental findings from paper PMC12136788 are described below.

Some of the results follow.

Sequences and labels used below:
T1: UNK ZnF1-3 (human, UniProt Q9C0B0 31-174)
T1 sequence: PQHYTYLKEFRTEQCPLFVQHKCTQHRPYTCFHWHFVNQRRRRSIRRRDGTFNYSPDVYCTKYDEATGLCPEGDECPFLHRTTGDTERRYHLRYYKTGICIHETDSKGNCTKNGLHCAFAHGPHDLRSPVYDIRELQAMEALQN

B1: chr1:163122426:163122427:-_ENSG00000143248_ENST00000313961|hu_mus|FALSE|FALSE (ssRNA)
RNA: GGGAGUUCUACAGUCCGACGAUCUUCAUAAAUUUGCUUUGCCUUCUCCGCCAUUUUGAUGGGGGACUUGAUCUUCUUGUAAUUCUCACAGGCAACCCAGAACUCAAGGUUUUCCUCACUGAAUUCAGACUUCAGGAAACUUUUCAACAGAGGAUUGAGCAUCA
B2: chr3:176767854:176767855:-_ENSG00000177565_ENST00000430069|hu_hu|hu_hu_hu_mus_False|18_68 (ssRNA)
RNA: GGGAGUUCUACAGUCCGACGAUCGACAUCCUUGUUACUGGGCACGUCCUGCCCUCCUUCCCGUAUGCAAUGUCUAAGCACGAGCUGCGUAGGGCCACUCGUGCUGUUCUCACUGAGAUUCCAUAUUCUUGCCGUGGAGUCUCCCAACAGAGGAUUGAGCAUCA
B3: 6862929_6863049_1259_3pUTR_ENSG00000170871_ENST00000425103|human|control|control (ssRNA)
RNA: GGGAGUUCUACAGUCCGACGAUCUAACAUACUUCAUGGAUGCUUUUAAUUCUCCCUGAUUCCCACUGGAACUUGAGCCUGCUUCACUGGAGCCAGAAGACCACGAGCGAGGGCGAAUCUUUCCUUCAGGUUUAUGUCGGAUUUCAACAGAGGAUUGAGCAUCA
B4: chr14:59836542:59836543:+_ENSMUSG00000035469_ENSMUST00000043227|mus_mus|motif|central (ssRNA)
RNA: GGGAGUUCUACAGUCCGACGAUCCCAAGCAAAUAACUCUCCAUCAGCUGCUAAAGCCAUCGAAUGAUGUGAACCACAAGCGGCUUCAAUCACCUGCUUGAUCAAGAGAUUAGUACAGACUUGGACAGGAGCAAUGCCUUGGUUCAACAGAGGAUUGAGCAUCA
B5: chr10:33190432:33190433:-_ENSG00000150093_ENST00000302278|hu_mus|hu_hu_hu_mus_True|8_88 (ssRNA)
RNA: GGGAGUUCUACAGUCCGACGAUCUACAUUUUCCAAACCUGCAUGUGAGUAAAACCAUGGCCACAGAGCCCCAAAACUACCCUACUGUGACUAAGAUGCUGCUGCUGUGAGCUUGGUGUUGCAAAAUUUUGCACGGGAGGAUUCCAACAGAGGAUUGAGCAUCA
B6: chr17:40359653:40359654:-_ENSG00000173757_ENST00000293328|hu_hu|FALSE|FALSE (ssRNA)
RNA: GGGAGUUCUACAGUCCGACGAUCUGGUGUGUAGUAUUUGGAGUAUACUUCAUCUUUUGGCCGAUCAGGAAACACGUAGAUAAGGUAAUUCAAGUCUCCCAAGCGGUCGGCUAGGGACCGAAUGGAGAAGUCUCUGGUGGUAAACAACAGAGGAUUGAGCAUCA
B7: chr1:60041781:60041782:+_ENSMUSG00000041040_ENSMUST00000036540|mus_hu|mus_mus_mus_hu_False|8_18 (ssRNA)
RNA: GGGAGUUCUACAGUCCGACGAUCAAGUUUACAAUAGUAAAGUAAAUGCAGUAGUGGCAAAUUUUCUUUUAUUUUCCUUCACAAAAGAAAAUCUUUAUAACCCAGUCCUAGUCUUGGCAGAGAAAGCUCUCCAUGGGUCUGACUCAACAGAGGAUUGAGCAUCA
B8: chr17:49118984:49118985:-_ENSG00000008294_ENST00000510283|hu_mus|motif|central (ssRNA)
RNA: GGGAGUUCUACAGUCCGACGAUCUCCUUUCUGAGUGUCAGGUGUAAGCAAUCCAUCUCCAGCAGGUAGAGGGAAAAUCCCGGAUGAUAUAGGACGUUCUUUUCUGAGUAUCCUUGGUAGGUUCUGCGUCAGCGCUGGCACCCCCAACAGAGGAUUGAGCAUCA
B9: chr4:120564514:120564515:+_ENSMUSG00000032890_ENSMUST00000071093|mus_hu|FALSE|FALSE (ssRNA)
RNA: GGGAGUUCUACAGUCCGACGAUCAGACCACCAGGAGCAGGCACAGGUGAAGAACACACAGGCUCUGCCCCAGGCCAGGACCAGGCAGCACCGACCAGUGGCCGCAUGCCCCACCUCCAUCCCUGGAGACUCCUCAGGGUGAGUCAACAGAGGAUUGAGCAUCA
B10: chr7:151048522:151048523:+_ENSG00000013374_ENST00000566856|hu_mus|hu_hu_hu_mus_True|18_68 (ssRNA)
RNA: GGGAGUUCUACAGUCCGACGAUCCUGUUUCUUAUUUAUUACGAUCUUGAUGUAAUUUUCUUGAAAUCCAAAGGUUUCAGCUAUUUGACACCUCAGGUCUCUACCAGUGACAUGCAAUCGGGUCUCCAACAAGCUUUUCUUAUCCAACAGAGGAUUGAGCAUCA
B11: chr9:14812383:14812384:-_ENSMUSG00000031934_ENSMUST00000164273|mus_mus|mus_mus_mus_hu_True|28_38 (ssRNA)
RNA: GGGAGUUCUACAGUCCGACGAUCAUAGCCCAGGUAGAUACACGCUAACAGUAUAAUGAUGAGUGUCAGCAGGCGGCAGCUAAUGUACUUGAUGAUUAAAUGACUAGAGUUCUUUUUUGUCUUCAAGUACUGCUCCACAAUUGGCAACAGAGGAUUGAGCAUCA
B12: chr14:66974463:66974464:+_ENSMUSG00000022044_ENSMUST00000074523|mus_mus|motif|central (ssRNA)
RNA: GGGAGUUCUACAGUCCGACGAUCUUGUAGGAUGAUUUAUUCAGGGGAUCAGACAAGAAGCAAGAGCAGAACAGAGACACGGGUGGGAGUUCCUUCAUCUUCUCCUUAUAGGCUGCAAGAGUCAUGUUGGCUGGAAUCUGGUGGCAACAGAGGAUUGAGCAUCA
B13: chr15:85967975:85967976:+_ENSMUSG00000035900_ENSMUST00000088931|mus_hu|FALSE|FALSE (ssRNA)
RNA: GGGAGUUCUACAGUCCGACGAUCCAAAGCAUUUUAGGUUUAUUUAAAUAAAAAUUAUAAUUUAUACAAUACUUUUUCUUUAAACAAACAAAGUUUUCUUAAAAAAAUGUUACAGGAGAAUUUUUUUCAUCGGUUCUUAAUACACAACAGAGGAUUGAGCAUCA
B14: 35774738_35774858_1489_3pUTR_ENSMUSG00000016534_ENSMUST00000061755|mouse|control|control (ssRNA)
RNA: GGGAGUUCUACAGUCCGACGAUCAUAGUAUUUGGAAUUCUUUUGUUUUAAUUUGAGCUCUACUAUACCACCCAAUCUAAGAGCAGGACUGUAACUAAUGUACCUUCAAUAGUAUUGCAUGCGAGAACUUGUACUUGCUUUAUUCAACAGAGGAUUGAGCAUCA
B15: chr1:163117127:163117128:-_ENSG00000143248_ENST00000313961|hu_mus|hu_hu_hu_mus_False|58_88 (ssRNA)
RNA: GGGAGUUCUACAGUCCGACGAUCUGCUACAAAGGAUGUAACUCAACACUCACAGGAACUUUUGGAAGCCUGACCAGAUUACUACUUGAUUAGCUCCUUAUAAAAUUCAGAGCGCACAAAGCGGGGCAGAGAAUCCUUCUCCAUCAACAGAGGAUUGAGCAUCA
B16: chr7:65705844:65705845:+_ENSG00000169902_ENST00000304842|hu_mus|hu_hu_hu_mus_False|8_28 (ssRNA)
RNA: GGGAGUUCUACAGUCCGACGAUCAAACGGAUCUUUGUUACAUAAAUAAGGUGCCGGCUCCCCAUGUUUAACAAUGACCUCCAGAAGGAAGGCUUGCAUGGCAGAAUCCAGCACUUCAUCUGUGACACCAGCCUCAUCCAAGCGCAACAGAGGAUUGAGCAUCA
B17: chr10:13244450:13244451:-_ENSMUSG00000019809_ENSMUST00000019945|mus_mus|FALSE|FALSE (ssRNA)
RNA: GGGAGUUCUACAGUCCGACGAUCAAGGACACCACAUUCCAUUCCAUAUACGUAUGGAAGUACCUAGUUGGUUUGGAUCAGCUAUCCAGACUUUAAGAAAUCAUGAUUGAUCCUGAUGUAAUUUGUGCACCAGUUAGAUACACCCAACAGAGGAUUGAGCAUCA
B18: chr19:42637464:42637465:+_ENSMUSG00000025184_ENSMUST00000026188|mus_hu|FALSE|FALSE (ssRNA)
RNA: GGGAGUUCUACAGUCCGACGAUCAGUUUCAACUUCCAAACACUCCACCUUCUUUGGUUUAAAAUGUCUCUGCAAAGGUGCAUUAGUUAUAACCCCAGCAUUUGGGGCUCCCUGCUGUUGUCCUUGGGAUAAUACUUCUUUGGACAACAGAGGAUUGAGCAUCA
B19: chr9:110451384:110451385:+_ENSMUSG00000044791_ENSMUST00000153838|mus_hu|FALSE|FALSE (ssRNA)
RNA: GGGAGUUCUACAGUCCGACGAUCAGGAUUUUUAUUAAUCAUUCUUAAUUCACUACCUUUUGAACAAGGUGUCUGUAAACUAAAAGAAUGAGACUGUUUGAUUUCUUCAUUUAAUUCUGUACAACAGAAAGAAUUUUUAAAUUUCAACAGAGGAUUGAGCAUCA
B20: chr1:150795811:150795812:-_ENSG00000143437_ENST00000358595|hu_hu|motif|central (ssRNA)
RNA: GGGAGUUCUACAGUCCGACGAUCCCAUUCUUGGUUCUUAGACCGGAACCGGAACAUGACAGACAGCACUUGGCCUUUUAAUUUCACGGCCUGUUGGAAGCUGUCUCUUAGAAGCUGCUGGUCUUCAGGAUGACAGAAUUCUACCAACAGAGGAUUGAGCAUCA
B21: chr4:57314706:57314707:+_ENSG00000128050_ENST00000264221|hu_mus|hu_hu_hu_mus_True|38_98 (ssRNA)
RNA: GGGAGUUCUACAGUCCGACGAUCCAGAAUUUCAAAAAUAGCCUGUGUGGCAUGACUCAUGAUGUCCACUUCAGUCUGCCCUAUAACAAGGCCAGCAAAGCAAAAUUUUGCAGCAAUGAGUUGCUCCUCAGACCACUGUGGAUCCAACAGAGGAUUGAGCAUCA
B22: 89284534_89284654_251_5pUTR_ENSMUSG00000022619_ENSMUST00000023291|mouse|control|control (ssRNA)
RNA: GGGAGUUCUACAGUCCGACGAUCCAUCUUCCCUGGAACCGCCGGCCGGCAGCGAGGGGGAGGGGUGAGGAGCACCGCGCGCCCUUGGUGCUCAGGCUCGCGGCCUCUGUCUCCCCACUCACCUCGUGACACGCCCUGCGACACCAACAGAGGAUUGAGCAUCA

This experiment addresses T1, UNK ZnF1-3. Put plainly: nsRBNS (natural sequence RNA bind-n-seq); RBNS binding buffer (assumed for nsRBNS): 25 mM Tris pH 7.5, 150 mM KCl, 3 mM MgCl2, 0.01% Triton X-100, 500 ug/ml BSA, 20 U/ml SUPERase-In, 4 C; UNK is unkempt and MSI1 is Musashi-1; names of the RNAs are library labels; protein concentration not given here; high values mean tight binding.
B1 gave a binding signal of 0.773 enrichment R. With B2 the figure was 0.383 enrichment R; with B3, 0.608 enrichment R; with B4, 0.913 enrichment R. On to B5, for which the binding signal was 1.16 enrichment R.

B6 had a binding signal of 1.13 enrichment R.

In turn, B7 gave a binding signal of 0.736 enrichment R. With B8 the figure was 0.803 enrichment R. With B9 the figure was 1.32 enrichment R.

The molecule B10 showed a binding signal of 0.591 enrichment R. Turning to B11, the binding signal stood at 1.25 enrichment R.

On to B12, for which the binding signal came to 1.8 enrichment R. The same measure for B13: 0.501 enrichment R. With B14 the figure was 0.672 enrichment R.

For B15, the binding signal stood at 1.11 enrichment R.

For B16, the binding signal is 0.456 enrichment R. With B17, the binding signal is 0.868 enrichment R. The molecule B18 returned a binding signal of 1.14 enrichment R. The molecule B19 displayed a binding signal of 0.351 enrichment R.

B20 had a binding signal of 0.8 enrichment R.

On to B21, for which the binding signal was 0.847 enrichment R. The same measure for B22: 0.876 enrichment R.
